Measurements as given in the supplement of paper PMC9446081.
Among all 39,000 compounds or so, about 220 (0.56%) showed activity. This is one part of the list.
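Note: static incubation at 37 °C against the wild-type strain, values averaged over two biological replicates.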

What follows are molecules tested on Escherichia coli K-12 BW25113 (assay: relative growth (OD600 normalised to plate interquartile mean) (fraction); higher = less growth inhibition, active = 0.2 or less). Settings: 50 µM; LB; incubation time: overnight (16-24 h).
For `C[C@@H]1CN([C@H](C)CO)C(=O)c2cccc(NS(C)(=O)=O)c2O[C@H]1CN(C)Cc1ccc(C(=O)O)cc1`, the relative growth was inactive: 0.994. With `CCS(=O)(=O)Nc1ccc2c(c1)C(=O)N(C)[C@@H]1CC[C@@H](CC(=O)NCc3ccccc3F)O[C@H]1CO2` the relative growth was inactive: 1.02. In the case of `Cc1noc(C)c1NC(=O)N[C@H]1CC[C@H](CC(=O)NCCCN(C)C)O[C@@H]1CO`, the relative growth is reported as inactive: 0.995. `C[C@H]1CCCCO[C@H](CN(C)C(=O)C2CCCCC2)[C@@H](C)CN([C@@H](C)CO)C(=O)c2cc(NC(=O)CCC(F)(F)F)ccc2O1` was tested, and the relative growth was inactive: 0.996. For `C[C@@H]1CN([C@@H](C)CO)C(=O)Cc2cc(NC(=O)NC3CCCCC3)ccc2O[C@@H]1CN(C)S(C)(=O)=O`, the relative growth was inactive: 1.02. With `Cc1ccc(S(=O)(=O)Nc2ccc3c(c2)C(=O)N([C@@H](C)CO)C[C@H](C)[C@H](CN(C)Cc2ccc(C(F)(F)F)cc2)O3)cc1` the relative growth was inactive: 1.01. With `C[C@@H]1CC[C@@]2(OC1)O[C@H]1C[C@H]3[C@H]4C[C@@H](O)[C@H]5C[C@@H](O[C@@H]6O[C@H](CO)[C@H](O[C@@H]7O[C@H](CO)[C@@H](O)[C@H](O[C@@H]8OC[C@@H](O)[C@H](O)[C@H]8O)[C@H]7O[C@@H]7O[C@H](CO)[C@@H](O)[C@H](O)[C@H]7O)[C@H](O)[C@H]6O)[C@H](O)C[C@]5(C)[C@@H]4CC[C@]3(C)[C@H]1[C@@H]2C` the relative growth was inactive: 0.965. In the case of `C/C=C/C1=CC(=O)[C@H](O)[C@H]1O`, the relative growth is reported as inactive: 0.996. In the case of `C[C@@H]1CN([C@@H](C)CO)C(=O)c2cc(NC(=O)Nc3cccc4ccccc34)ccc2O[C@H]1CN(C)S(=O)(=O)c1ccc(F)cc1`, the relative growth is reported as inactive: 0.995. For `COc1ccc(CN(C)C[C@@H]2OCCCC[C@H](C)Oc3ccc(NS(=O)(=O)c4ccccc4)cc3C(=O)N([C@@H](C)CO)C[C@@H]2C)cc1`, the relative growth was inactive: 0.991. With `Cc1ccc(S(=O)(=O)N(C)C[C@H]2OCCCC[C@@H](C)Oc3ccc(NC(=O)Nc4c(C)noc4C)cc3C(=O)N([C@H](C)CO)C[C@@H]2C)cc1` the relative growth was inactive: 1.02. With `C[C@@H]1CN([C@@H](C)CO)S(=O)(=O)c2ccc(-c3cccc(C(=O)N(C)C)c3)cc2O[C@H]1CN(C)C(=O)Cc1ccccn1` the relative growth was inactive: 1.01. In the case of `O=S1(=O)CC[C@H](S(=O)(=O)[C@H]2CCS(=O)(=O)C2)C1`, the relative growth is reported as inactive: 0.883. In the case of `COc1ccccc1-c1ccc2c(c1)O[C@H](CN(C)C(=O)c1ccncc1)[C@H](C)CN([C@H](C)CO)S2(=O)=O`, the relative growth is reported as inactive: 0.981. For `COc1ccc(S(=O)(=O)N(C)C[C@@H]2Oc3c(NC(=O)c4cnccn4)cccc3C(=O)N([C@H](C)CO)C[C@@H]2C)cc1`, the relative growth was inactive: 1.01. For `O=c1cn[nH]c(Nc2ccccc2)n1`, the relative growth was inactive: 0.964. `Cc1noc(C)c1NC(=O)N(C)C[C@H]1Oc2ccc(NS(=O)(=O)c3cn(C)cn3)cc2CC(=O)N([C@@H](C)CO)C[C@@H]1C` was tested, and the relative growth was inactive: 1. `CCN(CC)C(=O)[C@@H]1C[C@@H](N)CN1S(=O)(=O)N1CCCCCC1` was tested, and the relative growth was inactive: 1.01. `C[C@H](CO)N1C[C@H](C)[C@@H](CN(C)S(=O)(=O)c2ccc(F)cc2)Oc2c(NS(=O)(=O)c3ccc(F)cc3)cccc2C1=O` was tested, and the relative growth was inactive: 1. For `C[C@@H]1CN([C@H](C)CO)C(=O)Cc2cc(NC(=O)CCC(F)(F)F)ccc2O[C@@H]1CN(C)S(=O)(=O)c1cccs1`, the relative growth was inactive: 0.992. In the case of `Nc1ncnc2c1ncn2[C@H]1O[C@H](COP(=O)(O)O)[C@@H](O)[C@H]1O`, the relative growth is reported as inactive: 0.992. `COCC(=O)Nc1ccc2c(c1)C(=O)N(C)C[C@H](OC)[C@@H](C)CN(C(=O)c1ccccc1F)[C@@H](C)CO2` was tested, and the relative growth was inactive: 1.01. With `CCN1CCN(Cc2ccc(C(=O)Nc3ccc(C)c(Oc4ccc5c(c4)CC(=O)N5)c3)cc2C(F)(F)F)CC1` the relative growth was inactive: 0.931. With `Cn1c(=O)c2cc(S(=O)(=O)N3CCOCC3)ccc2n(C)c1=O` the relative growth was inactive: 0.98. With `C[C@H](CO)N1C[C@H](C)[C@H](CN(C)S(=O)(=O)c2ccc3c(c2)OCCCO3)OCc2cnnn2CCCC1=O` the relative growth was inactive: 0.947. With `O=C(C[C@@H]1CC[C@H]2[C@@H](COC[C@H](O)CN2C(=O)c2ccncc2)O1)NCc1ccc(-c2ccccc2)cc1` the relative growth was inactive: 0.983. For `COc1ccccc1C#Cc1ccc2c(c1)O[C@H](CN(C)C(C)=O)[C@H](C)CN([C@H](C)CO)S2(=O)=O`, the relative growth was inactive: 0.999. For `CC(C)NC(=O)N(C)C[C@@H]1OCc2cn(nn2)CCCC(=O)N([C@@H](C)CO)C[C@H]1C`, the relative growth was inactive: 0.918. With `CO[C@H]1O[C@H](CO)C(=O)C(=O)[C@@H]1N` the relative growth was inactive: 1.01. In the case of `CNC[C@H]1Oc2ccc(NS(=O)(=O)c3cn(C)cn3)cc2C(=O)N([C@H](C)CO)C[C@H]1C`, the relative growth is reported as inactive: 0.998. `Cc1noc(C)c1NC(=O)N(C)C[C@@H]1Oc2ccc(NC(=O)Nc3ccc(C(F)(F)F)cc3)cc2C(=O)N([C@@H](C)CO)C[C@@H]1C` was tested, and the relative growth was inactive: 0.972. `C[C@H]1CN([C@@H](C)CO)C(=O)c2cccc(NS(=O)(=O)c3ccccc3)c2O[C@@H]1CN(C)CC1CC1` was tested, and the relative growth was inactive: 0.993. In the case of `C[C@@H]1CN([C@H](C)CO)C(=O)c2cc(-c3cccc(C(=O)N(C)C)c3)cnc2O[C@H]1CN(C)S(=O)(=O)c1cccc(F)c1`, the relative growth is reported as inactive: 0.987. For `COc1ccc(S(=O)(=O)Nc2ccc3c(c2)C(=O)N([C@H](C)CO)C[C@H](C)[C@@H](CN(C)C(=O)Nc2cccc4ccccc24)O3)cc1`, the relative growth was inactive: 0.989. In the case of `CC(C)(C)[S@@](=O)N1Cc2cc(C(=O)N3CCc4ccccc4C3)nc(-c3cccc(-c4cncnc4)c3)c2[C@H]1CCO`, the relative growth is reported as inactive: 0.984. In the case of `Cc1noc(C)c1NC(=O)Nc1ccc2c(c1)CC(=O)N([C@H](C)CO)C[C@H](C)[C@@H](CN(C)Cc1ccc(Oc3ccccc3)cc1)O2`, the relative growth is reported as inactive: 0.955. `C[C@@H]1CN([C@H](C)CO)C(=O)Cc2cc(NC(=O)C3CCCCC3)ccc2O[C@H]1CN(C)Cc1ccc(-c2ccccc2)cc1` was tested, and the relative growth was inactive: 1.01. For `CN(C)C(=O)C[C@@H]1C=C[C@H](NC(=O)C2CC2)[C@@H](CO)O1`, the relative growth was inactive: 0.917. With `CCN1C[C@]23CN(Cc4cnn(C)c4)C[C@@H](C[C@H]2S1(=O)=O)O3` the relative growth was inactive: 1. With `O=C(C[C@H]1CC[C@H]2[C@@H](COC[C@H](O)CN2Cc2ccccc2F)O1)N[C@H]1CCN(Cc2ccccc2)C1` the relative growth was inactive: 1.01. With `Cc1cc(NC2CCCCC2)ncn1` the relative growth was inactive: 0.989. For `Cc1noc(C)c1S(=O)(=O)N(C)C[C@@H]1Oc2ccc(NC(=O)Nc3ccc4c(c3)OCO4)cc2CC(=O)N([C@H](C)CO)C[C@@H]1C`, the relative growth was inactive: 1. In the case of `O=C(CCCCCNC(=O)OCCCOc1ccc(C2=N[C@]3(Cc4ccccc4)C(=O)N(Cc4ccccc4)Cc4ccccc4[C@@H]3O2)cc1)NO`, the relative growth is reported as inactive: 1.03. For `C[C@H]1CN([C@@H](C)CO)C(=O)Cc2cc(NC(=O)Nc3ccc4c(c3)OCO4)ccc2O[C@@H]1CN(C)C(=O)Nc1cccc2ccccc12`, the relative growth was inactive: 0.973. For `C[C@@H]1CCCCO[C@@H](CN(C)Cc2ccc(C(=O)O)cc2)[C@@H](C)CN([C@@H](C)CO)C(=O)c2cc(NC(=O)CCC(F)(F)F)ccc2O1`, the relative growth was inactive: 0.972. In the case of `CCC[C@@H]1C[C@@H](C(=O)N[C@@H]([C@H]2O[C@H](SC)[C@H](OP(=O)(O)O)[C@@H](O)[C@H]2O)[C@H](C)Cl)N(C)C1`, the relative growth is reported as inactive: 1.01. For `C[C@@H]1CCCCO[C@@H](CN(C)C(=O)Nc2ccc(C(F)(F)F)cc2)[C@H](C)CN([C@H](C)CO)C(=O)c2cc(NS(=O)(=O)c3ccc(Cl)cc3)ccc2O1`, the relative growth was inactive: 1.01. With `C[C@H]1CN([C@@H](C)CO)S(=O)(=O)c2ccc(C#Cc3cccc(F)c3)cc2O[C@H]1CN(C)CC1CC1` the relative growth was inactive: 0.988. In the case of `COc1ccc(C#Cc2ccc3c(c2)O[C@H](CN(C)C(=O)c2ccccn2)[C@H](C)CN([C@H](C)CO)S3(=O)=O)cc1`, the relative growth is reported as inactive: 1.01. `O=C(NCCO)c1ccc(C(=O)NCCO)cc1` was tested, and the relative growth was inactive: 0.984. In the case of `CO[C@@H]1CN(C)C(=O)c2ccc(NC(=O)C3CC3)cc2OC[C@@H](C)N(C(=O)CN2CCOCC2)C[C@H]1C`, the relative growth is reported as inactive: 1.04. For `C[C@H](CO)N1C[C@H](C)[C@H](CN(C)C(=O)Nc2cccc3ccccc23)Oc2ccc(NC(=O)Cc3cn(C)c4ccccc34)cc2CC1=O`, the relative growth was inactive: 1.04. `COc1ccc(NC(=O)Nc2ccc3c(c2)C(=O)N([C@H](C)CO)C[C@H](C)[C@H](CN(C)C(=O)Nc2cccc4ccccc24)OCCCC[C@@H](C)O3)cc1` was tested, and the relative growth was inactive: 1.02. For `C[C@H]1CCCCO[C@H](CN(C)Cc2ccc(Cl)c(Cl)c2)[C@@H](C)CN([C@@H](C)CO)C(=O)c2cc(NS(=O)(=O)c3ccc(F)cc3)ccc2O1`, the relative growth was inactive: 0.959. In the case of `Cc1ccc(S(=O)(=O)N2C[C@@H](O)COC[C@@H]3O[C@H](CC(=O)NCCN4CCCCC4)CC[C@H]32)cc1`, the relative growth is reported as inactive: 1. For `Cc1ccc(S(=O)(=O)N(C)C[C@H]2OCCCC[C@H](C)Oc3ccc(NC(=O)Nc4ccc(F)cc4)cc3C(=O)N([C@H](C)CO)C[C@@H]2C)cc1`, the relative growth was inactive: 1.03. For `C[C@H]1COc2c(C3(N)CC3)c(F)cc3c(=O)c(C(=O)O)cn1c23`, the relative growth was active: 0.0591. For `Cc1noc(C)c1NC(=O)N(C)C[C@H]1Oc2ccc(NS(=O)(=O)c3c(C)noc3C)cc2CC(=O)N([C@@H](C)CO)C[C@@H]1C`, the relative growth was inactive: 0.985. For `Cc1noc(C)c1NC(=O)Nc1ccc2c(c1)C(=O)N([C@@H](C)CO)C[C@H](C)[C@@H](CN(C)S(=O)(=O)c1cccs1)OCCCC[C@@H](C)O2`, the relative growth was inactive: 1.02.
